The campaign covered roughly 39,000 compounds. About 220 (0.56%) showed activity. This is one part of the list.
Tested on: Escherichia coli K-12 BW25113
Assay: relative growth (OD600 normalised to plate interquartile mean) (fraction); higher = less growth inhibition, active = 0.2 or less
Details: 50 µM; LB; incubation time: overnight (16-24 h)
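Note: static incubation at 37 °C against the wild-type strain, values averaged over two biological replicates.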

Row | SMILES | relative growth
1 | Cc1noc(C)c1NC(=O)Nc1cccc2c1O[C@H](CN(C)Cc1ccc(-c3ccccc3)cc1)[C@H](C)CN([C@@H](C)CO)C2=O | inactive: 1
2 | C[C@H](CO)N1C[C@H](C)[C@H](CN(C)Cc2ccncc2)OCCCC[C@H](C)Oc2ccc(NC(=O)Nc3ccc(C(F)(F)F)cc3)cc2C1=O | inactive: 0.971
3 | CC(C)(C)[S@@](=O)N1Cc2cc(C(=O)N3CCCCC3)nc(-c3cccc(C4=CCCC4)c3)c2[C@H]1CCO | inactive: 1.01
4 | CC1(C)CC(=O)c2c(C(F)(F)F)nn(-c3ccc(C(N)=O)c(O[C@H]4CC[C@H](N)CC4)c3)c2C1 | inactive: 0.996
5 | Cc1ccccc1S(=O)(=O)N1C[C@@H](O)COC[C@H]2O[C@H](CC(=O)NCCc3ccccc3)CC[C@@H]21 | inactive: 1.05
6 | C[C@@H]1CN([C@H](C)CO)C(=O)c2cc(NS(=O)(=O)c3ccccc3)ccc2O[C@@H]1CN(C)C(=O)Nc1cccc2ccccc12 | inactive: 1.01
7 | CN1C(=O)c2cc(NC(=O)C3CCC3)ccc2OC[C@H]2O[C@@H](CC(=O)NCCc3ccncc3)CC[C@@H]21 | inactive: 1.02
8 | CO[C@H]1CN(C)C(=O)c2ccc(NS(=O)(=O)c3ccccc3C)cc2OC[C@@H](C)N(S(C)(=O)=O)C[C@@H]1C | inactive: 1.02
9 | COc1ccc(S(=O)(=O)Nc2ccc3c(c2)CC(=O)N([C@H](C)CO)C[C@@H](C)[C@@H](CN(C)S(=O)(=O)c2c(C)noc2C)O3)cc1 | inactive: 1.01
10 | Cc1ccc(S[C@]2(C(=O)NCC(F)(F)F)CC(=O)N(C3CCCCC3)[C@@H]2c2ccc(CO)cc2I)cc1 | inactive: 1.03
11 | C[C@H]1CN([C@@H](C)CO)C(=O)c2cc(NS(=O)(=O)c3ccccc3)ccc2O[C@H]1CN(C)S(=O)(=O)c1cn(C)cn1 | inactive: 0.981
12 | COCCCNC(=O)[C@@]1(Sc2ccc(C)cc2)CC(=O)N(C2CCCCC2)[C@@H]1c1ccc(CO)cc1I | inactive: 1.01
13 | COCC(=O)Nc1ccc2c(c1)OC[C@@H](C)N(C(=O)c1ccccc1F)C[C@H](C)[C@@H](OC)CN(C)C2=O | inactive: 0.951
14 | C[C@H]1CN([C@@H](C)CO)C(=O)Cc2cc(NC(=O)Cc3cn(C)c4ccccc34)ccc2O[C@@H]1CN(C)Cc1ccc(Cl)c(Cl)c1 | inactive: 1.01
15 | C[C@@H]1CN([C@H](C)CO)C(=O)c2cccc(NC(=O)Nc3ccccc3)c2O[C@@H]1CN(C)S(=O)(=O)c1cn(C)cn1 | inactive: 0.991
16 | C[C@H](CO)N1C[C@H](C)[C@@H](CN(C)C(=O)Nc2ccc(C(F)(F)F)cc2)Oc2c(NC(=O)CCCCCC(=O)Nc3ccccc3N)cccc2C1=O | inactive: 1
17 | Cc1ccc(S(=O)(=O)N(C)C[C@H]2OCCCC[C@H](C)Oc3ccc(NC(=O)NC4CCCCC4)cc3C(=O)N([C@@H](C)CO)C[C@H]2C)cc1 | inactive: 1.02
18 | Cc1noc(C)c1NC(=O)N(C)C[C@H]1OCCCC[C@H](C)Oc2ccc(NS(=O)(=O)c3ccc(Cl)cc3)cc2C(=O)N([C@@H](C)CO)C[C@@H]1C | inactive: 1.01
19 | COc1ccc(CN(C)C[C@@H]2OCCCC[C@H](C)Oc3ccc(NC(=O)Nc4ccc(OC)cc4)cc3C(=O)N([C@H](C)CO)C[C@H]2C)cc1 | inactive: 0.986
20 | C[C@H]1CN([C@@H](C)CO)C(=O)Cc2cc(NC(=O)CCCCCC(=O)Nc3ccccc3N)ccc2O[C@@H]1CN(C)C(=O)Nc1ccccc1 | inactive: 0.951
21 | CN1C(=O)c2cc(NC(=O)C3CCC3)ccc2OC[C@@H]2O[C@@H](CC(=O)NCCc3ccncc3)CC[C@H]21 | inactive: 1.01
22 | CO[C@H](CN(C)S(=O)(=O)c1ccc(F)cc1)[C@H](C)CN([C@@H](C)CO)S(=O)(=O)c1cccc(Cl)c1 | inactive: 1.05
23 | C[C@H](CO)N1C[C@H](C)[C@@H](CN(C)S(=O)(=O)c2cn(C)cn2)OCCCC[C@H](C)Oc2ccc(N(C)C)cc2C1=O | inactive: 0.994
24 | CC1OC(OC2C(O)CC(OC3C(O)CC(OC4CCC5(C)C(CCC6C5CC(O)C5(C)C(C7=CC(=O)OC7)CCC65O)C4)OC3C)OC2C)CC(O)C1O (centres undefined) | inactive: 1.16
25 | C[C@@H]1CN([C@H](C)CO)S(=O)(=O)c2ccc(C#Cc3ccccc3F)cc2O[C@@H]1CN(C)C(=O)c1ccc2c(c1)OCO2 | inactive: 1.02
26 | C[C@@H]1CCCCO[C@@H](CN(C)C(=O)Nc2ccc(F)cc2)[C@H](C)CN([C@H](C)CO)C(=O)c2cc(NC(=O)Nc3cccc4ccccc34)ccc2O1 | inactive: 1.02
27 | Cc1noc(C)c1NC(=O)Nc1ccc2c(c1)C(=O)N([C@H](C)CO)C[C@H](C)[C@H](CN(C)S(=O)(=O)c1ccc(F)cc1)OCCCC[C@H](C)O2 | inactive: 0.987

Row | SMILES | relative growth
28 | Cc1noc(C)c1NC(=O)N(C)C[C@@H]1Oc2ncc(C#CCN(C)C)cc2C(=O)N([C@@H](C)CO)C[C@H]1C | inactive: 0.987
29 | COc1ccc(NC(=O)N(C)C[C@H]2Oc3ccc(NC(=O)CCN4CCOCC4)cc3C(=O)N([C@H](C)CO)C[C@H]2C)cc1 | inactive: 1.03
30 | CC(=O)NCCCC[C@@H]1NC(=O)[C@H]2C[C@@H](C(=O)NCc3ccc(F)cc3)[C@@H](c3ccc(O)cc3)N2C1=O | inactive: 1
31 | COc1ccc(NC(=O)N(C)C[C@@H]2Oc3ccc(NC(=O)Nc4ccc(C(F)(F)F)cc4)cc3C(=O)N([C@@H](C)CO)C[C@@H]2C)cc1 | inactive: 1.02
32 | COC(=O)c1c(CC[C@@H](CO)NC(=O)N2CCC[C@H]2Cn2cc(C3(O)CCCCC3)nn2)oc(C(C)=O)c1C(=O)OC | inactive: 0.976
33 | C[C@@H]1CCCCO[C@H](CN(C)CC2CCCCC2)[C@H](C)CN([C@H](C)CO)C(=O)c2cc(NC(=O)Cc3ccccc3)ccc2O1 | inactive: 0.999
34 | C[C@@H]1CCCCO[C@@H](CN(C)C(=O)Cc2ccccc2)[C@@H](C)CN([C@H](C)CO)C(=O)c2cc(NS(=O)(=O)c3ccc(Cl)cc3)ccc2O1 | inactive: 0.989
35 | C[C@@H]1CN([C@H](C)CO)C(=O)c2cc(NS(=O)(=O)c3cn(C)cn3)ccc2O[C@@H](C)CCCCO[C@H]1CN(C)S(=O)(=O)c1cccs1 | inactive: 0.993
36 | Cc1noc(C)c1NC(=O)Nc1ccc2c(c1)C(=O)N([C@H](C)CO)C[C@@H](C)[C@H](CN(C)Cc1ccc(C(F)(F)F)cc1)OCCCC[C@@H](C)O2 | inactive: 0.967
37 | C[C@H](CO)N1C[C@H](C)[C@@H](CN(C)Cc2ccc(C(=O)O)cc2)Oc2ncc(C#CCN(C)C)cc2C1=O | inactive: 1
38 | C[C@@H]1CN([C@H](C)CO)C(=O)c2cc(NC(=O)C3CCCCC3)ccc2O[C@@H](C)CCCCO[C@H]1CN(C)C(=O)c1ccccc1 | inactive: 1.01
39 | C[C@@H]1CCCCO[C@H](CN(C)S(=O)(=O)c2cccs2)[C@H](C)CN([C@H](C)CO)C(=O)c2cc(NC(=O)CCC(F)(F)F)ccc2O1 | inactive: 0.999
40 | O=C(C[C@@H]1CC[C@H]2[C@@H](COC[C@H](O)CN2S(=O)(=O)c2ccc(Cl)cc2)O1)NCCN1CCCCC1 | inactive: 1.05
41 | O=C(CN1CCOCC1)NCC[C@H]1CC[C@@H](NS(=O)(=O)c2ccc(Cl)cc2)[C@H](CO)O1 | inactive: 1.02
42 | C[C@H]1CN([C@@H](C)CO)C(=O)c2cccc(NS(=O)(=O)c3cn(C)cn3)c2O[C@H]1CN(C)Cc1ccc(C(=O)Nc2ccccc2N)cc1 | inactive: 0.989
43 | Cc1noc(C)c1S(=O)(=O)Nc1cccc2c1O[C@@H](CN(C)S(=O)(=O)c1cccs1)[C@@H](C)CN([C@H](C)CO)C2=O | inactive: 1
44 | COc1ccc(S(=O)(=O)N(C)C[C@@H]2Oc3ccc(NC(=O)CCC(F)(F)F)cc3CC(=O)N([C@H](C)CO)C[C@@H]2C)cc1 | inactive: 1.02
45 | C[C@@H]1CCCCO[C@@H](CN(C)C(=O)c2ccccc2)[C@H](C)CN([C@@H](C)CO)C(=O)c2cc(NS(=O)(=O)c3ccccc3)ccc2O1 | inactive: 1.03
46 | C[C@H]1CN([C@@H](C)CO)C(=O)c2cc(NC(=O)Cc3ccccc3)ccc2O[C@@H]1CN(C)Cc1ccc(Cl)c(Cl)c1 | inactive: 1.03
47 | C[C@@H]1CCCCO[C@H](CN(C)CC2CC2)[C@H](C)CN([C@@H](C)CO)C(=O)c2cc(NC(=O)Cc3ccccc3)ccc2O1 | inactive: 1.02
48 | COc1ccc(S(=O)(=O)Nc2ccc3c(c2)C(=O)N([C@H](C)CO)C[C@@H](C)[C@H](CN(C)Cc2ccccc2)OCCCC[C@@H](C)O3)cc1 | inactive: 1.01
49 | COCC(=O)Nc1ccc2c(c1)C(=O)N(C)C[C@H](OC)[C@@H](C)CN(Cc1ccccc1F)[C@@H](C)CO2 | inactive: 1
50 | C[C@@H]1CCCCO[C@H](CN(C)C(=O)C2CCCCC2)[C@@H](C)CN([C@@H](C)CO)C(=O)c2cc(NC(=O)NC3CCCCC3)ccc2O1 | inactive: 1.02
51 | C[C@H](CO)N1C[C@H](C)[C@@H](CN(C)C(=O)Nc2ccc(C(F)(F)F)cc2)OCCCC[C@H](C)Oc2ccc(NC(=O)Nc3ccc(F)cc3)cc2C1=O | inactive: 1.03
52 | C[C@@H]1CCCCO[C@@H](CN(C)Cc2ccc(C(F)(F)F)cc2)[C@@H](C)CN([C@@H](C)CO)C(=O)c2cc(NC(=O)CCCN(C)C)ccc2O1 | inactive: 0.952
53 | C[C@@H]1CCCCO[C@@H](CN(C)C(=O)Nc2ccc3c(c2)OCO3)[C@@H](C)CN([C@@H](C)CO)C(=O)c2cc(NC(=O)c3ccccc3)ccc2O1 | inactive: 1.01
54 | C[C@H](CO)N1C[C@H](C)[C@H](CN(C)S(C)(=O)=O)Oc2c(NC(=O)c3ccc(-c4nccs4)cc3)cccc2C1=O | inactive: 0.995
